# Reference: PubChem BioAssay AID2675 (National Center for Advancing Translational Sciences (NCATS), 2010)
# Screen size: about 280,000 compounds; about 100 (0.036%) were called active. Inconclusive means that the source gave no clear call. Such entries were picked first, then a sample of the others. Calls come from the whole dose curve; as a rule, active = well fitted inhibition curve with a large enough effect in the signal ratio, with a control signal flat (not every such curve was filed as active); inconclusive = small, poorly fitted or top-dose-only effect, or effect the other way, or a change in a side signal; inactive = no such curve, though single readings can be large or run the other way; the % refers to the signal ratio. Potencies of inconclusive entries are doubtful fits and often do not repeat. A note “side channel” means that the fit belongs to a control or component signal, not to the main read-out.
# Target: Muscleblind-like protein 1 (Homo sapiens) (UniProt Q9NR56)
# Chain of UniProt Q9NR56 (Q9NR56 whole entry, looked up): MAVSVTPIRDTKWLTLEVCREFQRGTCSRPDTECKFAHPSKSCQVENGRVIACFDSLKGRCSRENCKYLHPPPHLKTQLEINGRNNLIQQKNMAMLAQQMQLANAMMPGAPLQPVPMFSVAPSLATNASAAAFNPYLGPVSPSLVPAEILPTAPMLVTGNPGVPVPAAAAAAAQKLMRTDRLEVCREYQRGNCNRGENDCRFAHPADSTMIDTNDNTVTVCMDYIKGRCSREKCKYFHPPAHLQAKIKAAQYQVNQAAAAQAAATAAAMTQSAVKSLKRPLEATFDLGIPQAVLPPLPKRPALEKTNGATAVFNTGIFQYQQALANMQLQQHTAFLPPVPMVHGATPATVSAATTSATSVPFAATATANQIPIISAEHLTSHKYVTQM
# Assay: qHTS Assay for Inhibitors of MBNL1-poly(CUG) RNA binding
# Conditions: TR-FRET MBNL1-His/biotin-(CUG)12 binding, 665/545 ratio; activity change, negative = inhibition: at 57.5 µM (top of the series)
# Summary of the method: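 Compounds (final 92 nM to 58 uM) are added to His-tagged MBNL1 and biotin-(CUG)12, then terbium anti-His antibody and streptavidin-XL665 (5 nM final). After 60 min at room temperature, the 665/545 nm ratio is read.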
# % is set by controls: 0 for no effect and ±100 for the full control effect; potency is the fitted concentration of half-maximal effect; tags give direction and shape of the fitted curve or compound fluorescence and quenching.
SMILES,Potency,"activity change, negative = inhibition"
CC(C)CC(N=C1NC(C)(C)Cc2ccccc21)C(=O)O (configuration not stated),"inconclusive: 63.1 µM [inhibitor, partial curve]",
CCN(CC)CCCNC(=O)c1ccc2c(Cl)c3c(nc2c1)CCCC3,"inconclusive: 20 µM [quencher, side channel, partial curve]",
COc1cc(/C=N/N2CCCCC2)cc([N+](=O)[O-])c1O,"inconclusive: 28.2 µM [quencher, side channel, partial curve]",
CN(C)c1ccc(N=Nc2cccc3ccoc23)cc1,"inconclusive: 20 µM [quencher, side channel, partial curve]",
O=[N+]([O-])c1cccc(/C=N/NC2=NCCCCC2)c1,"inconclusive: 2.51 µM [quencher, side channel, full curve]",
O=S(=O)(c1cccc(NC(=S)N2CCN(c3ccc(F)cc3)CC2)c1)C(F)F,,inactive: -3.01%
O=C(Oc1ccccc1C(=O)Nc1ccccc1)c1ccc(Br)c([N+](=O)[O-])c1,,inactive: 9.11%
Cc1ccccc1NC(=O)c1cc(S(=O)(=O)N2CCOCC2)cs1,"inconclusive: 79.4 µM [inhibitor, single point]",
COc1ccc(C(=O)Nc2cc(C(C)=O)c(/C=C/N(C)C)oc2=O)cc1,"inconclusive: 5.01 µM [quencher, side channel, full curve]",
O=C1C2C3C=CC(C4CC34)C2C(=O)N1/N=C/c1ccc(-c2ccccc2[N+](=O)[O-])o1 (configuration not stated),"inconclusive: 15.8 µM [quencher, side channel, partial curve]",
CCOC(=O)c1[nH]c2ccc(OC)cc2c1NC(=O)c1ccccc1C(=O)O,"inconclusive: 31.6 µM [quencher, side channel, partial curve]",
CC(=O)c1c(C)[nH]c(C(=O)N2CCN(C(=O)c3ccco3)CC2)c1C,,inactive: 3.17%
Cc1cc2cc(C)c3nnc(SCc4ccccn4)n3c2cc1C,"inconclusive: 0.316 µM [fluorescent, side channel, full curve]",
COc1ccc(-n2ncc3c(=O)n(CC(=O)N(C(C)C)C(C)C)cnc32)cc1,"inconclusive: 31.6 µM [fluorescent, side channel, single point]",
CCOC(=O)c1c(N)sn(-c2ccccc2)c1=S,"inconclusive: 25.1 µM [quencher, side channel, partial curve]",
CCOC(=O)c1ccc(NC(=O)CSC2=NC(=O)C(CC)C(=O)N2)cc1 (configuration not stated),"inconclusive: 31.6 µM [inhibitor, single point]",
CCCCN(CC)C(=O)c1cc2c(=O)n3cccc(C)c3nc2s1,"inconclusive: 14.1 µM [quencher, side channel, partial curve]",
